Measured values: PubChem BioAssay AID1508623 (National Center for Advancing Translational Sciences (NCATS), 2021)
The campaign covered roughly 48,000 compounds. About 450 (0.94%) were called active. Another 19% or so got no clear call; they are omitted. Calls follow the shape of the dose curve; as a rule, active = well fitted inhibition curve with a large enough effect; inconclusive = small, poorly fitted or top-dose-only effect; inactive = no such curve, though single readings can be large or run the other way. This is one part of the list.

Assay: Primary qHTS for Identification of Small Molecule Inhibitors of Huntingtin Promoter Activity; also: nearly all actives have a fitted effect of over 50% in size
Conditions: HEK293 HTT promoter firefly luciferase reporter (activity 0% = vehicle and -100% = no light), 24 h; series mostly up to 57.5 µM; activity change, negative = inhibition: at the top concentration
Method in brief: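 Firefly luciferase signal from promoter-reporter HEK293 cells was scaled between vehicle (0%) and zero RLU (-100%). Compounds were tested at final concentrations of up to 57.5 uM over 24 h at 37 degrees C. PTC124 at 50 uM final served as control inhibitor.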
Potency is read from the fitted curve at half-maximal effect.

Row | SMILES | activity change, negative = inhibition | Potency
1 | COc1ccc(C2C(C(=O)Nc3ccccc3OC)=C(C)Nc3c(C(=O)Nc4ccccc4)cnn32)c(OC)c1 (stereo not given) | inactive: -3.81% | 
2 | CC(C)CCNC(=O)CCn1c(=O)c2cccn2c2cccnc21 | inactive: 2.59% | 
3 | COc1cn(CC(=O)Nc2ccccc2)c(CN2CCCCC2)cc1=O | inactive: -7.4% | 
4 | CC(=O)c1cccc(NC(=O)C(C)n2c(=O)cc(-c3ccccc3)c3c(C)nn(C)c32)c1 (stereo not given) | inactive: -6.28% | 
5 | COc1cccc(CNC(=O)c2ccc(NC(=O)N3CCCCc4ccccc43)cc2)c1OC | inactive: -15.5% | 
6 | CCOc1ccc(-c2cc(-c3nc(-c4ccc(C)cc4)no3)[nH]n2)cc1 | inactive: -15% | 
7 | CCN1C(=O)c2ccccc2S(=O)(=O)c2ccc(C(=O)NCc3ccccc3Cl)cc21 | inactive: -15.2% | 
8 | COC(=O)CSc1ncc2c(n1)-c1ccccc1N(Cc1cccc(F)c1)S2(=O)=O | inactive: -17.4% | 
9 | O=C(O)CCCCCC(=O)NN=C1CCCC1 | inactive: -0.399% | 
10 | CCOC(=O)C1CCN(C(=O)CSc2n[nH]c(-c3ccc(F)cc3)n2)CC1 | inactive: -3.31% | 
11 | COc1cccc(CNC(=O)c2c(C)oc3nc(C)nc(N4CCOCC4)c23)c1 | inactive: 3.75% | 
12 | CCc1cccc(C)c1NS(=O)(=O)c1c(C)nc2sccn2c1=O | inactive: -9.13% | 
13 | O=C(Cn1c(=O)oc2cc(S(=O)(=O)N3CCCC3)ccc21)NCc1ccc(F)cc1 | inactive: -30.3% | 
14 | Cc1cc(C(=O)C(=O)Nc2nnc(C(C)C)s2)c(C)n1-c1ccccc1 |  | active: 6.31 µM
15 | Cc1cccc(C(=O)Nc2ccc(OCc3cc(=O)n4ccsc4n3)cc2)c1 | inactive: 3.04% | 
16 | CCN(CC)S(=O)(=O)c1ccc2c(c1)N(CC(=O)N1CCN(c3ccc(Cl)cc3)CC1)C(=O)CO2 | inactive: -14.2% | 
17 | O=C(NC1CCCCCC1)C1c2ccccc2C(=O)N1Cc1ccccc1Cl (stereo not given) | inactive: 0.581% | 
18 | O=C(O)[C@@H]1[C@H]2C[C@H]3c4[nH]c5ccccc5c4CCN3C[C@@H]2CC[C@@H]1O | inactive: 2.55% | 
19 | CCN1CCN(C(=O)c2ccc3c(c2)N(Cc2ccccc2F)C(=O)c2ccccc2S3=O)CC1 (stereo not given) | inactive: -4% | 
20 | Cc1ccc(-n2c3c(cc(C(=O)Nc4cccc(Cl)c4)c2=O)C(=O)CC(C)(C)C3)cc1 | inactive: 4.15% | 

Row | SMILES | activity change, negative = inhibition | Potency
21 | Cc1ccc(Cl)cc1N1CCN(C(=O)CCCCCn2c(=O)[nH]c3ccccc3c2=O)CC1 | inactive: -2.75% | 
22 | CCOc1ccccc1-c1nc(SCC(=O)c2ccc(OC)c(Br)c2)n[nH]1 | inactive: -6.7% | 
23 | CC(C)OC(=O)c1cccnc1SCC(=O)Nc1ccc(C(F)(F)F)cc1Cl | inactive: -5.98% | 
24 | O=c1c2sccc2n(Cc2cc(=O)n3ccccc3n2)c(=O)n1-c1cccc(C(F)(F)F)c1 | inactive: -8.44% | 
25 | Cc1cnc(=O)[nH]c1SCC(=O)Nc1nc2ccccc2s1 | inactive: 27.6% | 
26 | Cc1ccc2oc(-c3cccc(NC(=O)c4sc5c([N+](=O)[O-])cccc5c4Cl)c3)nc2c1 | inactive: -8.51% | 
27 | CCc1ccc(C(=O)NC(Cc2c[nH]c3ccccc23)C(=O)OCC(=O)c2ccc(Br)cc2)cc1 (stereo not given) | inactive: -6.11% | 
28 | Cc1cc2c(cc3c(SCC(=O)Nc4cccc(Cl)c4C)nnc(C)n32)o1 | inactive: -3.41% | 
29 | CCOc1ccc(CCNC(=O)c2c(C)oc3ncn(C)c(=O)c23)cc1 | inactive: 5.74% | 
30 | CC(C)CCOc1ccccc1Cn1c(=O)sc2ccccc21 | inactive: -7.09% | 
31 | O=C(NCCCN1CCOCC1)c1ccc(Cl)cc1 | inactive: 13.4% | 
32 | CCc1ccc(-n2c(=O)c3c(C)c(C(=O)N(C)C)sc3n(Cc3ccccc3F)c2=O)cc1 | inactive: -9.7% | 
33 | Cc1oc(-c2ccccc2Cl)nc1CS(=O)CC(=O)NCc1ccccc1Cl (stereo not given) | inactive: -3.13% | 
34 | COc1ccc(NC(=O)CN2CCN(CC(=O)Nc3ccccc3F)CC2)cc1OC | inactive: -22.2% | 
35 | O=S(=O)(c1ccc(F)cc1)N(Cc1nc(-c2ccccc2)no1)C1CCCCC1 | inactive: -16.7% | 
36 | O=C(COc1ccc(F)cc1)Nc1ccc(C(=O)OCc2cc(=O)n3nc(C4CC4)sc3n2)cc1 | inactive: -4.46% | 
37 | CCOc1ccc(NC(=O)N2CCC(c3ccc(C)cc3)C2)cc1 (stereo not given) | inactive: 21.1% | 
38 | Cc1ccc(CN(Cc2cccn2-c2nnc(N3CCCC3=O)s2)C(=O)Nc2ccc(F)cc2)cc1 | inactive: -11.3% | 
39 | CCOc1ccc(NC(=O)c2sc3nc4c(cc3c2N)CN(Cc2ccccc2)CC4)cc1 | inactive: -24.2% | 
40 | Cc1ccc(-n2nc(C(=O)Nc3ccc(Br)cc3C)c(=O)n(C)c2=O)cc1 | inactive: -3.92% | 

Row | SMILES | activity change, negative = inhibition | Potency
41 | COC(=O)c1ccc(NC(=O)C(=O)NCCc2csc(-c3ccc(C(F)(F)F)cc3)n2)cc1 | inactive: -3.83% | 
42 | COc1ccccc1CNC(=O)CSCc1nc(-c2ccc(OC)c(OC)c2)oc1C | inactive: -20.2% | 
43 | Cc1ccc(Cn2ccnc2SCC(=O)Nc2ccccc2C(F)(F)F)cc1 | inactive: -4.28% | 
44 | CCCn1c2ccccc2c2cnn(CC(=O)NCc3ccc(OC)cc3)c(=O)c21 | inactive: -20.1% | 
45 | COc1ccc(OC)c(NC(=O)CCn2cccn2)c1 | inactive: 0.361% | 
46 | COc1ccccc1CNC(=O)C1CCN(S(=O)(=O)c2ccc3[nH]c(=O)ccc3c2)CC1 | inactive: 9% | 
47 | CCOc1ccc(NC(=O)Cn2c(=O)n(Cc3ccco3)c(=O)c3ccc(C(=O)NC4CCCC4)cc32)cc1 | inactive: -6.97% | 
48 | CCc1nn(CC(=O)N2CCN(c3cccc(Cl)c3)CC2)c(=O)c2cc3sccc3n12 | inactive: -13.1% | 
49 | O=C(CCC1CCN(Cc2ccccc2)CC1)c1ccc2c(c1)NCCCC2 | inactive: -18.1% | 
50 | COc1cc(OC)c(NC(=O)Cn2c(SCc3ccccc3F)nc3cccnc32)cc1Cl | inactive: -2.36% | 
51 | Cc1ccccc1N=Nc1ccc(N=Nc2c(O)ccc3ccccc23)c(C)c1 | inactive: 2.4% | 
52 | CCOc1ccc(NC(=O)Cn2nc(SC)c(S(=O)(=O)c3ccccc3)c2N)cc1 | inactive: -33.8% | 
53 | CC(=O)c1ccc(N2CCN(c3nc4ccccc4c4nc(-c5cccc(C)c5)nn34)CC2)cc1 | inactive: 3.2% | 
54 | O=C(NCCCN1CCCCC1)c1[nH]c2ccccc2c1Sc1ccc(Cl)cc1 | inactive: -26.2% | 
55 | COC1CCC(C(=O)c2ccc3nc4c(cc3c2)CCCO4)CC1 (stereo not given) | inactive: -13.4% | 
56 | Cc1c(Cl)cccc1-n1ncc(C(=O)N2CCC(C)CC2)c1C1CCN(C(=O)OC(C)(C)C)CC1 | inactive: -7.63% | 
57 | CC(C)C(NS(=O)(=O)c1ccc2c(c1)oc(=O)n2C)C(=O)NCc1ccccc1 (stereo not given) | inactive: -3.08% | 
58 | CC(=O)c1ccc(N2CCN(C(=O)c3cc4c(s3)-c3ccccc3OC4)CC2)cc1 | inactive: -2.07% | 
59 | O=C(Nc1cccc(C(=O)OCc2cc(=O)n3c4c(sc3n2)CCCC4)c1)c1cccc(Cl)c1 | inactive: 10.5% | 
60 | COc1cccc(NC(=O)Cn2nnc(C(=O)NCCc3ccccc3)c2N)c1 | inactive: 6.69% | 
